Measurements reported in PubChem BioAssay AID588453 (National Center for Advancing Translational Sciences (NCATS), 2011).
Several values for one entry are separate records, joined by “and”; a condition that tells them apart may be missing. Equal entries are not always repeated. Among all 390,000 compounds or so, about 4,000 (1%) were called active. The shares of active, inactive and inconclusive entries below differ from those in the screen. The call rests on the fitted dose curve; in most records, active means well fitted inhibition curve with a large enough effect; inconclusive means small, poorly fitted or top-dose-only effect; inactive means no such curve, though single readings can be large or run the other way. Where the call is inconclusive, the potency comes from a doubtful curve fit.
Further: nearly all actives have a fitted effect of over 65% in size.
Potency means the concentration at half of the fitted maximal effect; tags describe the fitted curve by direction and shape.

The compounds below were run against Thioredoxin reductase 1, cytoplasmic (Rattus norvegicus) (UniProt O89049) (assay: qHTS Assay for Inhibitors of Mammalian Selenoprotein Thioredoxin Reductase 1 (TrxR1): qHTS). Details: recombinant rTrxR1, NADPH fluorescence consumption, selenite substrate; series mostly up to 114 µM.
UniProt O89049, sequence (O89049 whole entry, looked up): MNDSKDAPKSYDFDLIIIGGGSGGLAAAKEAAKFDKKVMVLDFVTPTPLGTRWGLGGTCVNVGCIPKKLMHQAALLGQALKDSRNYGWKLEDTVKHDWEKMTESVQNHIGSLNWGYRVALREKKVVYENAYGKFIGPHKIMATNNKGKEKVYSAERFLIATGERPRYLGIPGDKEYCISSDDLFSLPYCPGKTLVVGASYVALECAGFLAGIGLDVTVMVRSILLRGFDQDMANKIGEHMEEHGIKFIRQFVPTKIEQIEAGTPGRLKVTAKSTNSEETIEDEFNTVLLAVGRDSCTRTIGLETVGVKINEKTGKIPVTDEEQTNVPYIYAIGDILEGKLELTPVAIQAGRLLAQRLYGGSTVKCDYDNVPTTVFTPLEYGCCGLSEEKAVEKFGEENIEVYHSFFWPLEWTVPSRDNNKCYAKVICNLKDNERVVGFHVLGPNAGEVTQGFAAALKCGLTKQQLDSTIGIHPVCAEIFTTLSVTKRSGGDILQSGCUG
Procedure, shortened: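 Rat TrxR1 (90 nM in the dispensed reagent) was pre-reduced with 400 uM NADPH for 5 min at room temperature, then incubated with compound for 15 min. After 400 uM selenite was added, NADPH fluorescence (Ex 340/Em 450 nm) was followed for 8 min.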
For N#C/C(=C\c1coc2ccc(O)cc2c1=O)C(=O)Nc1nc2ccccc2s1, the Potency was active: 14.1 µM.
NC1=NC(=O)/C(=C/c2cccc(-c3ccc(S(N)(=O)=O)cc3)c2)S1 was tested, and the Potency was inconclusive: 56.2 µM [inhibitor, partial curve].
For CCn1ncc(Cl)c1C(=O)NC(=S)Nc1c(C)cc(C)cc1[N+](=O)[O-], the Potency was inconclusive: 31.6 µM [inhibitor, partial curve].
Cc1c(C(=O)NCc2c(F)cc(F)cc2F)oc2ccc(S(=O)(=O)N3CCOCC3)cc12 was tested, and the Potency was “inactive”.
With COc1ccc(-c2cn(-c3ccc(C)cc3C)c(=S)[nH]2)cc1OC the Potency was “inactive”.
With CC(C)c1cccc(C(C)C)c1NC1=NS(=O)(=O)c2ccccc21 the Potency was “inactive”.
For COc1ccccc1C(=O)N(Cc1ccco1)C1CCS(=O)(=O)C1 (configuration not stated), the Potency was inconclusive: 56.2 µM [inhibitor, partial curve, poor fit].
For COC(=O)C(C)Sc1ncnc2c1c(-c1ccccc1)cn2-c1ccc(F)cc1 (configuration not stated), the Potency was “inactive”.
O=C(Cn1c(-c2cccs2)cc2ccccc21)NCCc1ccc(Cl)cc1 was tested, and the Potency was “inactive”.
CCN(CC)S(=O)(=O)c1ccc(/C=C/C(=O)OCC(=O)NCc2ccco2)cc1 was tested, and the Potency was inconclusive: 50.1 µM [inhibitor, single point].
In the case of O=C1CCCC/C1=C\Nc1ccc(C(=O)O)c(O)c1, the Potency is reported as inconclusive: 17.8 µM [inhibitor, full curve].
For CC(Oc1ccc(Br)cc1Cl)C(=O)Nc1ccncc1 (configuration not stated), the Potency was “inactive”.
In the case of CCc1nnc(NC(=O)/C=C/c2ccco2)s1, the Potency is reported as inconclusive: 56.2 µM [inhibitor, partial curve, poor fit].
In the case of CS(=O)(=O)c1ncc(Cl)c(C(=O)Nc2ccc(N3CCOCC3)cc2)n1, the Potency is reported as active: 10 µM.
With COC(=O)C1=NN(N=O)C2(CC(=O)N(c3cc(C)cc(C)c3)C2=O)C1 (configuration not stated) the Potency was inconclusive: 25.1 µM [inhibitor, full curve, poor fit].
For Cc1cc(C(=O)NC2CCCc3c2cnn3-c2cccc(C)c2C)c(C)o1 (configuration not stated), the Potency was inconclusive: 39.8 µM [inhibitor, partial curve].
For Cc1ccc2c(C(=O)CN3CCCCC3CCO)c(C)[nH]c2c1 (configuration not stated), the Potency was inconclusive: 44.7 µM [inhibitor, single point].
O=C(CNC(=O)c1ccco1)Nc1cc(Cl)ccc1N1CCOCC1 was tested, and the Potency was “inactive”.
In the case of CN(CC(=O)Nc1ccccc1Cl)C(=O)CSc1nnc(-c2ccco2)n1C, the Potency is reported as inconclusive: 56.2 µM [inhibitor, partial curve, poor fit].
In the case of CC(=O)c1ccc2noc(-c3ccccc3)c2c1, the Potency is reported as inconclusive: 44.7 µM [inhibitor, partial curve, poor fit].
For Cc1cccc(C(=O)NC(=S)Nc2ccccc2C(F)(F)F)c1, the Potency was inconclusive: 28.2 µM [inhibitor, full curve].
In the case of Fc1ccc(C2Nc3cccc4cccc(c34)N2)cc1, the Potency is reported as active: 25.1 µM.
With CC1(C)CSC(=NCCc2ccccc2)N1 the Potency was inconclusive: 39.8 µM [inhibitor, single point].
O=C(Oc1cc(=O)n2ccccc2n1)c1ccccc1 was tested, and the Potency was inconclusive: 12.6 µM [inhibitor, partial curve].
C[C@H](NC(=O)[C@@H]1CSC2c3ccccc3C(=O)N21)C(=O)NC1CCCCC1 (some centres not stated) was tested, and the Potency was “inactive”.
In the case of Cc1nc(SCc2ccc(O)c([N+](=O)[O-])c2)n[nH]1, the Potency is reported as “inactive”.
For COCCNC(=O)c1cc2nc3c(c(C(F)(F)F)n2n1)CCc1ccccc1-3, the Potency was “inactive”.
With O=c1oc2ccccc2c(O)c1CN1CCCCC1 the Potency was “inactive”.
O=C(CCS(=O)(=O)c1nc(-c2ccc3c(c2)OCO3)cc(C(F)(F)F)n1)Nc1ccccc1F was tested, and the Potency was inconclusive: 25.1 µM [inhibitor, single point].
O=C(NC(=S)Nc1cc([N+](=O)[O-])ccc1O)C1CC1 was tested, and the Potency was inconclusive: 79.4 µM [inhibitor, single point].
With Cn1nccc1C(=O)Nc1ccc2c(c1)OCO2 the Potency was inconclusive: 89.1 µM [inhibitor, partial curve, poor fit].
In the case of O=C(CCN1C(=O)C2C3C=CC(C3)C2C1=O)N1CC(=O)N(CCc2ccccc2)C(=O)C1 (configuration not stated), the Potency is reported as inconclusive: 28.2 µM [inhibitor, single point].
With Cc1cc(Cl)ccc1OCCCC(=O)Nc1ccc(S(=O)(=O)Nc2ncccn2)cc1 the Potency was “inactive”.
With CN1C(=O)c2oc3ccccc3c(=O)c2C1c1ccncc1 (configuration not stated) the Potency was inconclusive: 70.8 µM [inhibitor, partial curve].
In the case of O=S(=O)(O)c1ccc(N=NNc2ccc(Br)cc2)cc1, the Potency is reported as “inactive”.
In the case of O=C1NCCN(Cc2ccoc2)C1CC(=O)N(Cc1ccccc1)CC1CCC1 (configuration not stated), the Potency is reported as inconclusive: 79.4 µM [inhibitor, partial curve, poor fit].
In the case of S=c1cnc2ccccc2[nH]1, the Potency is reported as inconclusive: 3.98 µM [inhibitor, full curve].
Cc1oc(-c2ccccc2)nc1CS(=O)CC(=O)N1CCc2ccccc2C1 (configuration not stated) was tested, and the Potency was active: 20 µM.
In the case of Fc1ccc(-c2cc3nc4c(c(N5CCOCC5)n3n2)CCCC4)cc1, the Potency is reported as “inactive”.
For Cc1onc(-c2c(Cl)cccc2Cl)c1C(=O)N=S(C)(=O)c1ccccc1 (configuration not stated), the Potency was inconclusive: 0.282 µM [inhibitor, full curve, poor fit].
For Cc1ccc(-c2ccc(CCC(=O)O)n2-c2cccc(O)c2)cc1, the Potency was inconclusive: 15.8 µM [inhibitor, partial curve, poor fit] and inconclusive: 79.4 µM [inhibitor, partial curve].
With COc1ccc(CNC(=O)CCc2c(C)nc3cc(-c4ccccc4OC)nn3c2C)cc1 the Potency was “inactive”.
In the case of O=C(O)c1ccc2c(c1)[C@@H]1C=CC[C@@H]1[C@H](c1ccccn1)N2, the Potency is reported as active: 3.98 µM.
For COc1ccccc1N1CCN(C(=O)c2ccc3c(Cl)c4c(nc3c2)CCCC4)CC1, the Potency was inconclusive: 17.8 µM [inhibitor, partial curve, poor fit].
With CC1OC(Nc2cccc3ccccc23)C(O)C(O)C1O (configuration not stated) the Potency was “inactive”.
For O=C1CCCc2cc(S(=O)(=O)NCC3CCC(C(=O)Nc4ccccc4F)CC3)ccc2N1 (configuration not stated), the Potency was “inactive”.
In the case of COc1ccc(-c2nc3ccc(NC(C)=O)cc3c(=O)n2Cc2ccccc2)cc1COc1ccc(NC(C)=O)cc1, the Potency is reported as active: 20 µM.
